The record followed here is patent US9714221B1 (priority 2016, dated 2017).

This experiment relates to MCF7 cells (breast tumor cells) WT. Kind of experiment: cells. As to conditions: Homo sapiens, read-out: proliferation MCF7 (WT) IC50 (nM).
In the case of `CCOc1ccc(C2=C(c3ccc(O[C@H]4CCN(CCCF)C4)cc3)c3ccc(O)cc3CCC2)c(F)c1Cl` [Example 103, 6-(3-chloro-4-ethoxy-2-fluoro-phenyl)-5-[4-[(3S)-1-(3-fluoropropyl)pyrrolidin-3-yl]oxyphenyl]-8,9-dihydro-7H-benzo[7]annulen-2-ol], the IC50 stood at 0.5 nM.

Consider `O=C(O)c1ccc2c(c1)CCCC(c1ccc(OC(F)(F)F)cc1F)=C2c1ccc(O[C@H]2CCN(CCCF)C2)cc1` [Example 168, 5-[4-[(3S)-1-(3-fluoropropyl)pyrrolidin-3-yl]oxyphenyl]-6-[2-fluoro-4-(trifluoromethoxy)phenyl]-8,9-dihydro-7H-benzo[7]annulen-2-carboxylic acid], for which the IC50 is 4 nM.

In the case of `Oc1ccc2c(c1F)CCCC(c1ccc(OC(F)(F)F)cc1Cl)=C2c1ccc(O[C@H]2CCN(CCCF)C2)cc1` [Example 180, 6-[2-chloro-4-(trifluoromethoxy)phenyl]-1-fluoro-5-[4-[(3S)-1-(3-fluoropropyl)pyrrolidin-3-yl]oxyphenyl]-8,9-dihydro-7H-benzo[7]annulen-2-ol], the IC50 was determined as 2 nM.

Turning to `CCOc1c(F)cc(C2=C(c3ccc(O[C@H]4CCN(CCCF)C4)cc3)c3ccc(O)cc3CCC2)cc1F` [Example 120, 6-(4-ethoxy-3,5-difluoro-phenyl)-5-[4-[(3S)-1-(3-fluoropropyl)pyrrolidin-3-yl]oxyphenyl]-8,9-dihydro-7H-benzo[7]annulen-2-ol], the IC50 came out at 0.3 nM.

On to `Cn1cnc2ccc(C3=C(c4ccc(O[C@H]5CCN(CCCF)C5)cc4)c4ccc(O)cc4CCC3)cc21` [Example 205, 5-[4-[(3S)-1-(3-fluoropropyl)pyrrolidin-3-yl]oxyphenyl]-6-(3-methylbenzimidazol-5-yl)-8,9-dihydro-7H-benzo[7]annulen-2-ol], for which the IC50 came to 8 nM.

Regarding `Oc1ccc2c(c1)CCCC(c1cnoc1)=C2c1ccc(O[C@H]2CCN(CCCF)C2)cc1` [Example 169, 5-[4-[(3S)-1-(3-fluoropropyl)pyrrolidin-3-yl]oxyphenyl]-6-isoxazol-4-yl-8,9-dihydro-7H-benzo[7]annulen-2-ol], the IC50 worked out at 10 nM.

`Cc1ccc(C2=C(c3ccc(O[C@H]4CCN(CCCF)C4)cc3)c3ccc(O)cc3CCC2)cc1Cl` [Example 37, 6-(3-chloro-4-methyl-phenyl)-5-[4-[(3S)-1-(3-fluoropropyl)pyrrolidin-3-yl]oxyphenyl]-8,9-dihydro-7H-benzo[7]annulen-2-ol]: the IC50 amounted to 0.5 nM.

In the case of `COc1cc(F)c(C2=C(c3ccc(O[C@H]4CCN(CCCF)C4)cc3)c3ccc(O)cc3CCC2)cc1F` [Example 88, 6-(2,5-difluoro-4-methoxy-phenyl)-5-[4-[(3S)-1-(3-fluoropropyl)pyrrolidin-3-yl]oxyphenyl]-8,9-dihydro-7H-benzo[7]annulen-2-ol], the IC50 was determined as 0.2 nM.

For `Oc1ccc2c(c1)CCCC(c1ccc3ocnc3c1)=C2c1ccc(O[C@H]2CCN(CCCF)C2)cc1` [Example 54, 6-(1,3-benzoxazol-5-yl)-5-[4-[(3S)-1-(3-fluoropropyl)pyrrolidin-3-yl]oxyphenyl]-8,9-dihydro-7H-benzo[7]annulen-2-ol], the IC50 turned out to be 0.1 nM.

Regarding `Oc1ccc2c(c1)CCCC(c1ccc3nsnc3c1)=C2c1ccc(O[C@H]2CCN(CCCF)C2)cc1` [Example 194, 6-(2,1,3-benzothiadiazol-5-yl)-5-[4-[(3S)-1-(3-fluoropropyl)pyrrolidin-3-yl]oxyphenyl]-8,9-dihydro-7H-benzo[7]annulen-2-ol], the IC50 came to 0.3 nM.

Regarding `Oc1ccc2c(c1)CCCC(c1ccc3sncc3c1)=C2c1ccc(O[C@H]2CCN(CCCF)C2)cc1` [Example 197, 6-(1,2-benzothiazol-5-yl)-5-[4-[(3S)-1-(3-fluoropropyl)pyrrolidin-3-yl]oxyphenyl]-8,9-dihydro-7H-benzo[7]annulen-2-ol], the IC50 stood at 0.2 nM.

Consider `CCOc1ccc(C2=C(c3ccc(O[C@H]4CCN(CCCF)C4)cc3)c3ccc(O)cc3CCC2)cn1` [Example 34, 6-(6-ethoxy-3-pyridyl)-5-[4-[(3S)-1-(3-fluoropropyl)pyrrolidin-3-yl]oxyphenyl]-8,9-dihydro-7H-benzo[7]annulen-2-ol], for which the IC50 was determined as 0.2 nM.

With `CC(C)(C)OC(=O)N1CCOc2ccc(C3=C(c4ccc(O[C@H]5CCN(CCCF)C5)cc4)c4ccc(O)cc4CCC3)cc21` [Example 156, tert-butyl 6-[5-[4-[(3S)-1-(3-fluoropropyl)pyrrolidin-3-yl]oxyphenyl]-2-hydroxy-8,9-dihydro-7H-benzo[7]annulen-6-yl]-2,3-dihydro-1,4-benzoxazine-4-carboxylate], the IC50 was determined as 2 nM.

Take `Oc1ccc2c(c1)CCCC(c1ccc3c(c1)CCCN3)=C2c1ccc(O[C@H]2CCN(CCCF)C2)cc1` [Example 73, 5-[4-[(3S)-1-(3-fluoropropyl)pyrrolidin-3-yl]oxyphenyl]-6-(1,2,3,4-tetrahydroquinolin-6-yl)-8,9-dihydro-7H-benzo[7]annulen-2-ol]: the IC50 was 0.9 nM.

On to `Oc1ccc2c(c1)CCCC(C1CCOCC1)=C2c1ccc(O[C@H]2CCN(CCCF)C2)cc1` [Example 203, 5-[4-[(3S)-1-(3-fluoropropyl)pyrrolidin-3-yl]oxyphenyl]-6-tetrahydropyran-4-yl-8,9-dihydro-7H-benzo[7]annulen-2-ol], for which the IC50 is 0.1 nM.

`Oc1ccc2c(c1)CCCC(c1cccc3ncccc13)=C2c1ccc(O[C@H]2CCN(CCCF)C2)cc1` [Example 152, 5-[4-[(3S)-1-(3-fluoropropyl)pyrrolidin-3-yl]oxyphenyl]-6-(5-quinolyl)-8,9-dihydro-7H-benzo[7]annulen-2-ol]: the IC50 amounted to 0.4 nM.

In the case of `Oc1ccc2c(c1)CCCC(c1ccc(N3CCOCC3)cc1)=C2c1ccc(O[C@H]2CCN(CCCF)C2)cc1` [Example 185, 5-[4-[(3S)-1-(3-fluoropropyl)pyrrolidin-3-yl]oxyphenyl]-6-(4-morpholinophenyl)-8,9-dihydro-7H-benzo[7]annulen-2-ol], the IC50 turned out to be 41 nM.

Take `COc1ncc(C2=C(c3ccc(O[C@H]4CCN(CCCF)C4)cc3)c3ccc(O)cc3CCC2)cc1F` [Example 102, 6-(5-fluoro-6-methoxy-3-pyridyl)-5-[4-[(3S)-1-(3-fluoropropyl)pyrrolidin-3-yl]oxyphenyl]-8,9-dihydro-7H-benzo[7]annulen-2-ol]: the IC50 was found to be 0.1 nM.

`COc1cc(C2=C(c3ccc(O[C@H]4CCN(CCCF)C4)cc3)c3ccc(O)cc3CCC2)ccc1F` [Example 50, 6-(4-fluoro-3-methoxy-phenyl)-5-[4-[(3S)-1-(3-fluoropropyl)pyrrolidin-3-yl]oxyphenyl]-8,9-dihydro-7H-benzo[7]annulen-2-ol]: the IC50 turned out to be 0.2 nM.

For the compound `CCN1C(=O)COc2ccc(C3=C(c4ccc(O[C@H]5CCN(CCCF)C5)cc4)c4ccc(O)cc4CCC3)cc21` [Example 135], the IC50 was found to be 1 nM.

As to `CCOc1ncc(C2=C(c3ccc(O[C@H]4CCN(CCCF)C4)cc3)c3ccc(O)cc3CCC2)cc1Cl` [Example 80, 6-(5-chloro-6-ethoxy-3-pyridyl)-5-[4-[(3S)-1-(3-fluoropropyl)pyrrolidin-3-yl]oxyphenyl]-8,9-dihydro-7H-benzo[7]annulen-2-ol], the IC50 came out at 0.5 nM.

On to `Cc1cc(C(C)(C)C)ccc1C1=C(c2ccc(O[C@H]3CCN(CCCF)C3)cc2)c2ccc(O)cc2CCC1` [Example 181, 6-(4-tert-butyl-2-methyl-phenyl)-5-[4-[(3S)-1-(3-fluoropropyl)pyrrolidin-3-yl]oxyphenyl]-8,9-dihydro-7H-benzo[7]annulen-2-ol], for which the IC50 came to 2 nM.

On to `COc1ccc(C2=C(c3ccc(O[C@H]4CCN(CCCF)C4)cc3)c3ccc(O)cc3CCC2)c(OC)c1` [Example 64, 6-(2,4-dimethoxyphenyl)-5-[4-[(3S)-1-(3-fluoropropyl)pyrrolidin-3-yl]oxyphenyl]-8,9-dihydro-7H-benzo[7]annulen-2-ol], for which the IC50 was determined as 0.3 nM.

Consider `CCOc1ccc(C2=C(c3ccc(O[C@H]4CCN(CCCF)C4)cc3)c3ccc(O)cc3CCC2)c(C)c1C` [Example 131, 6-(4-ethoxy-2,3-dimethyl-phenyl)-5-[4-[(3S)-1-(3-fluoropropyl)pyrrolidin-3-yl]oxyphenyl]-8,9-dihydro-7H-benzo[7]annulen-2-ol], for which the IC50 is 0.4 nM.

For the compound `Cc1cc(OC(F)(F)F)ccc1C1=C(c2ccc(O[C@H]3CCN(CCCF)C3)cc2)c2ccc(O)cc2CCC1` [Example 146, 5-[4-[(3S)-1-(3-fluoropropyl)pyrrolidin-3-yl]oxyphenyl]-6-[2-methyl-4-(trifluoromethoxy)phenyl]-8,9-dihydro-7H-benzo[7]annulen-2-ol], the IC50 was 0.4 nM.

As to `CCOc1ccc(C2=C(c3ccc(O[C@H]4CCN(CCCF)C4)cc3)c3ccc(O)cc3CCC2)c(F)n1` [Example 71, 6-(6-ethoxy-2-fluoro-3-pyridyl)-5-[4-[(3S)-1-(3-fluoropropyl)pyrrolidin-3-yl]oxyphenyl]-8,9-dihydro-7H-benzo[7]annulen-2-ol], the IC50 worked out at 0.2 nM.

Take `CCOc1c(F)cc(C2=C(c3ccc(O[C@H]4CCN(CCCF)C4)cc3)c3ccc(O)cc3CCC2)cc1Cl` [Example 140, 6-(3-chloro-4-ethoxy-5-fluoro-phenyl)-5-[4-[(3S)-1-(3-fluoropropyl)pyrrolidin-3-yl]oxyphenyl]-8,9-dihydro-7H-benzo[7]annulen-2-ol]: the IC50 was found to be 1 nM.

Turning to `Oc1ccc2c(c1)C(c1ccc(O[C@H]3CCN(CCCF)C3)cc1)=C(c1ccc(F)cc1Cl)CCC2` [Example 4, 6-(2-chloro-4-fluoro-phenyl)-5-[4-[(3S)-1-(3-fluoropropyl)pyrrolidin-3-yl]oxyphenyl]-8,9-dihydro-7H-benzo[7]annulen-3-ol], the IC50 is 5 nM.

For `Oc1ccc2c(c1)C(c1ccc(O[C@H]3CCN(CCCF)C3)cc1)=C(c1ccc3[nH]ccc3c1)CCC2` [Example 3, 5-[4-[(3S)-1-(3-fluoropropyl)pyrrolidin-3-yl]oxyphenyl]-6-(1H-indol-5-yl)-8,9-dihydro-7H-benzo[7]annulen-3-ol], the IC50 stood at 9 nM.

Consider `Oc1ccc2c(c1)CCCC(c1ccc(SC(F)F)cc1)=C2c1ccc(O[C@H]2CCN(CCCF)C2)cc1` [Example 157, 6-[4-(difluoromethylsulfanyl)phenyl]-5-[4-[(3S)-1-(3-fluoropropyl)pyrrolidin-3-yl]oxyphenyl]-8,9-dihydro-7H-benzo[7]annulen-2-ol], for which the IC50 worked out at 0.6 nM.
